Reference: publication PMC4336329 (PLoS ONE, 2015)
Hit rate of the full screen: of about 310,000 compounds, about 2,200 (0.71%) showed an effect of 50% or more. The effect is printed as a negative number. This is one part of the list. Where a SMILES comes first, the peptide text is derived from it. [ ]: non-standard residue; d: D form. The star is where a group is joined. Hyp = O=C(O)[CH]1C[CH](O)CN1; Cbz = O=C(OCc1ccccc1)*; OBn = c1ccc(CO*)cc1

What follows are compounds tested against human ether-à-go-go-related gene (hERG) potassium channel (human, UniProt Q12809) (assay: primary screen, population patch clamp on CHO cells stably expressing hERG).
human ether-à-go-go-related gene (hERG) potassium channel, sequence (Q12809 whole entry, looked up): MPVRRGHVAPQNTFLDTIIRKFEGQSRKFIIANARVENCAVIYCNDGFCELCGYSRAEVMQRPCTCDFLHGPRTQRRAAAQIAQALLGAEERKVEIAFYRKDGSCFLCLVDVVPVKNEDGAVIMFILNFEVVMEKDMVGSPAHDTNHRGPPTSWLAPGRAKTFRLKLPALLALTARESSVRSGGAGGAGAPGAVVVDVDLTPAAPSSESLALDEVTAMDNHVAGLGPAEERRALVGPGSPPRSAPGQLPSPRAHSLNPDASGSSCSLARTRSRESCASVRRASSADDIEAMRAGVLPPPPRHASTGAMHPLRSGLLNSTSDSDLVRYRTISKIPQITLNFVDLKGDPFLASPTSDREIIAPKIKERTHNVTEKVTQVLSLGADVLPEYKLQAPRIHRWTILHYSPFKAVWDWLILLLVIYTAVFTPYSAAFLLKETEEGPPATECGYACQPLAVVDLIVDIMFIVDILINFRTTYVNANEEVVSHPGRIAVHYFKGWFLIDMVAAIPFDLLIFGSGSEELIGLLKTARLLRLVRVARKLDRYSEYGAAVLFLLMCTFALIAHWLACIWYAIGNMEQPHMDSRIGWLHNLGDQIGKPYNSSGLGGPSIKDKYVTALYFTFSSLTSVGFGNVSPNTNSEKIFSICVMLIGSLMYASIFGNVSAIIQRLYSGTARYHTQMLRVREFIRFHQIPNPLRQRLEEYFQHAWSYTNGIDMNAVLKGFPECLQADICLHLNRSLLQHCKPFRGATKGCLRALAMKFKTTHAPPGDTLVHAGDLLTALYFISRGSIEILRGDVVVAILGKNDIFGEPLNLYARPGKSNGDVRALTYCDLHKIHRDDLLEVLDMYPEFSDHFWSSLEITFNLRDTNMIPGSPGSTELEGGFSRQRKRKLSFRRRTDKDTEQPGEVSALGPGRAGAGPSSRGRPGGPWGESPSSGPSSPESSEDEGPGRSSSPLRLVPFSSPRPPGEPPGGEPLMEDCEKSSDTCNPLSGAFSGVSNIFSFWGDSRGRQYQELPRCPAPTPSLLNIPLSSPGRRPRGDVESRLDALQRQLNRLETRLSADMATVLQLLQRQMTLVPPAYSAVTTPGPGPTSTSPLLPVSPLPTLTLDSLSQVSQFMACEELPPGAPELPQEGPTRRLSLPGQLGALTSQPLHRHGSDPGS

Row | Compound | hERG current change (%, negative = inhibition) at 1uM [%]
1 | CC1=C(C(=O)OC2CCCC2)C(c2ccc(C)o2)C2=C(CC(c3cccs3)CC2=O)N1 (centres unmarked) | -6.87
2 | CCC(CO)Oc1cc(NC(=O)c2ccc(F)cc2)c2ncn(C(C)C)c2c1 (centres unmarked) | 12.6
3 | CC1Cc2ccccc2N1C(=O)CSc1nnc(CNc2ccccc2)o1 (centres unmarked) | 3.55
4 | COc1ccccc1C(=O)N/N=C(\C)c1cccnc1 | 5.19
5 | Cc1ccc(NC(=O)COC(=O)c2ccc(Br)o2)cc1S(=O)(=O)N1CCCCC1 | 11.8
6 | CCCCCCCCCCOC(=O)C[N+](C)(C)CC1CCCCC1O.[Cl-] (centres unmarked) | 0.667
7 | CC1CCCCC1NC(=O)COC(=O)CN1C(=O)c2ccccc2C1=O (centres unmarked) | 15
8 | CCOC(=O)c1ccc(-c2ccc(/C=C(\C#N)C(=O)NCC3CCCO3)o2)cc1 (centres unmarked) | 6.13
9 | CCOc1cc(C2NN=C(c3ccc(C)cc3)S2)ccc1O (centres unmarked) | 5.35
10 | CCc1ccc(C(=O)c2oc3nc(C)cc(C)c3c2N)cc1 | 16
11 | Cc1ccccc1OCC(=O)N1N=C(c2cccnc2)CC1(O)C(F)(F)F (centres unmarked) | 10
12 | Cc1ccc2c(c1)c1c(n2CC(O)Cn2c(C)nc3ccccc32)C(=O)CCC1 (centres unmarked) | 18.9
13 | O=C(Nc1cccc(F)c1)C1CCCCC1 | -0.825
14 | Cc1ccc(S[C@@H](CCN2CC[C@H](C(C)(C)C)CCC2=O)c2ccccc2)cc1 | 14.4
15 | COc1ccccc1-n1c(-c2ccccc2)c[n+]2c1CCc1ccccc1-2.[Br-] | -34.7
16 | O=C(COC(=O)c1ccc(Cl)c(S(=O)(=O)N2CCOCC2)c1)NCc1ccco1 | 2.09
17 | Cc1ccc(CNCc2cccnc2)s1.Cl | 11.7
18 | O=C(NCC(=O)N1CC(O)CC1C(=O)N1CC(O)CC1C(=O)OCc1ccccc1)OCc1ccccc1 (stereo not drawn) (Cbz-Gly-[Hyp]-[Hyp]-OBn; configuration not given here) | 6.96
19 | O=C(CCNS(=O)(=O)c1ccc(OC(F)(F)F)cc1)N1CCN(C/C=C/c2ccccc2)CC1 | -21.4
20 | O=[n+]1c2c(n([O-])c3cc(F)c(N4CCCC4)cc31)CCC2 | 11.5
21 | COc1ccc(/C=C/C(=O)c2ccc([N+](=O)[O-])o2)cc1 | 13.3
22 | c1ccc(N2OCC3Cn4c(nc5ccccc54)C32)cc1 (centres unmarked) | -1.3
23 | COc1ccc(C(=O)NCCCc2nc3ccccc3n2Cc2cc(C)ccc2C)cc1OC | 0.238

Row | Compound | hERG current change (%, negative = inhibition) at 1uM [%]
24 | CCCc1c(C)nn(-c2ncccc2[N+](=O)[O-])c1C | 11.4
25 | Nc1ncc2c(n1)-c1ccoc1CC2 | 19.2
26 | Cc1cccn2cc(CCNS(=O)(=O)c3cccs3)nc12 | 3.71
27 | CCOC(=O)CN(C(=O)CNC(=O)c1cccs1)C(C(=O)NC1CCCC1)c1cccnc1 (centres unmarked) | 8.77
28 | O=C(O)c1ccc2oc(=O)c(S(=O)(=O)c3ccccc3)cc2c1 | 15.5
29 | Cc1cc(C(=O)N2CCCC(C(=O)c3cccc(C(F)(F)F)c3)C2)nc(C)n1 (centres unmarked) | 1.4
30 | CCOC(=O)CSC1=C(C#N)C(c2ccccc2OCC)C(C(=O)OCC)C(=O)N1 (centres unmarked) | 9.29
31 | O=C(c1cc(=O)[nH]c2ccccc12)N1CCN(S(=O)(=O)c2ccc(Cl)cc2)CC1 | 6.19
32 | N#Cc1cc2c(nc1SCC(=O)Nc1ccc(Cl)cc1)C1CCN2CC1 | 1.04
33 | CCOC(=O)Cn1nc(C)c([N+](=O)[O-])c1C | 14.2
34 | COc1ccc(CNC(=O)CN(Cc2ccc(Cl)cc2)C(=O)c2csnn2)cc1 | -14.8
35 | COc1ccc(-c2nc(-c3ccccc3OC)no2)cc1OC | 0.656
36 | COc1ccc(C(C(=O)NCC2CCCO2)N(C(=O)CNC(=O)c2ccco2)c2ccccc2)cc1OC (centres unmarked) | 6.09
37 | COc1ccc(NC(=O)C2CCN(S(C)(=O)=O)CC2)cc1 | 7.76
38 | O=C(O)C(=O)O.O=C(c1cccc(F)c1)N1CCC(N2CCOCC2)CC1 | 10.3
39 | CCOc1ccccc1C1NC(=O)c2ccccc2O1 (centres unmarked) | 5.28
40 | CC(=O)Nc1cc2c(ccc3ccccc32)oc1=O | 19.8
41 | Cc1ccc(C(=O)Nc2nc(-c3cccnc3)cs2)o1 | -9.95
42 | Cc1ccc(Cn2ccsc2=NC(=O)COC(=O)c2ccc(NC(=O)CC#N)cc2)cc1 | 1.37
43 | COC(=O)C(Cc1ccccc1)NC(=O)CNC(=O)c1ccc(Br)cc1 (centres unmarked) | -2.61
44 | Cc1cccn2c(=O)nc(SCC(=O)N3CCC(Cc4ccccc4)CC3)nc12 | -69.2
45 | COc1cc(/C=N/Nc2cccc(C)c2)ccc1OC(=O)c1cccs1 | 5.87
46 | CCn1c(C)nc2cc(NC(=O)Nc3cccc(C(C)=O)c3)ccc21 | 12.4

Row | Compound | hERG current change (%, negative = inhibition) at 1uM [%]
47 | CCOC(=O)C1CCN(CCC(=O)Nc2ccc(Br)cc2)CC1 | -33.2
48 | CS(=O)(=O)CCC(C(=O)O)N1C(=O)c2ccc(Oc3ccc(Cl)cc3)cc2C1=O (centres unmarked) | 13.1
49 | CN1C=CC=C/C1=C1\SC(=S)N(Cc2ccccc2)C1=O | 2.64
50 | COc1ccc(C2CC(c3ccccc3)=NN2C(=O)COC(=O)c2cccnc2Cl)cc1 (centres unmarked) | 14.4
51 | O=C(NCCc1c[nH]c2ccccc12)c1cnccn1 | 10.7
52 | COC(=O)c1sc(NC(=O)CSc2nnnn2-c2cccc(OC)c2)nc1C | 11.9
53 | CCOC(=O)N/N=C/c1c(C)c(C(=O)c2ccc(F)cc2)n2ccccc12 | 17
54 | CC1CCN(C(=O)C2CCN(S(=O)(=O)c3cccnc3)CC2)CC1 | 11.1
55 | Cc1csc(NC(=O)c2ccco2)n1 | 3.48
56 | O=C(/C=C/c1ccc(F)cc1)NNC(=O)CCN1CCN(Cc2ccccc2)CC1 | -10.3
57 | COc1ccc2ccccc2c1CN1CCSCC1 | 18.2
58 | CN1CCN(C=Nc2nc3ccccc3nc2N2CCCC2)CC1 | 5.62
59 | O=S1(=O)CCN2C=Nc3sc4c(c3C2=N1)CCCC4 | 9.11
60 | Cc1onc(-c2c(Cl)cccc2Cl)c1C(=O)NNc1ccccc1 | 10.8
61 | Nc1nonc1-n1nnc(C(=O)N/N=C/c2ccoc2)c1CSc1ccccc1 | 17.6
62 | CC(=O)Oc1ccccc1/C=C/c1nc2ccccc2c(=O)o1 | 13
63 | CCOC(=O)c1ccc(NC(=O)Cn2c(=O)oc3ccccc32)cc1 | 12.5
64 | CCn1c(SCC#N)nc2cc(S(=O)(=O)N3CCOCC3)ccc21 | 7.91
65 | CCCCCCSc1nnc(N)s1 | 7.6
66 | O=C(Cn1cc(C(=O)C2CC2)c2ccccc21)Nc1ccccc1Cl | 13.6
67 | CCCn1nnnc1SCC(=O)N1CCOCC1 | 13.9
68 | Cn1nnnc1SCc1nnc(-c2ccccc2Br)o1 | 7.49
69 | COC(=O)c1cccc(NC(=O)CCc2ccccc2)c1 | 6.88

Row | Compound | hERG current change (%, negative = inhibition) at 1uM [%]
70 | O=C(CSc1nnc(-c2c[nH]c3ccccc23)o1)N1CCCCC1 | 6.5
71 | O=[N+]([O-])c1ccc(S(=O)(=O)N2CCN(c3ccnc4cc(Cl)ccc34)CC2)cc1 | -77.8
72 | Cc1cccc(NC(=S)NC(C)(C)CC(C)(C)C)c1 | 11.3
73 | COc1ccc(N2CCN(C(=O)CCc3ccc(S(=O)(=O)NC(C)C)cc3)CC2)cc1 | 7.41
74 | CCOC(=O)c1c(NC(C)=O)sc(/C(C)=N/Nc2ccc(C(=O)O)cc2)c1C | 12.7
75 | CCc1ccc(CNC(=O)C2CCN(S(=O)(=O)N3CCCC3)CC2)cc1 | 3.4
76 | Cc1ccc(C(=O)Nc2ccccc2SCC2CSc3nc4ccccc4c(=O)n32)cc1 (centres unmarked) | -39
77 | COc1ccc(-c2[nH]nc3c2C(c2ccoc2)C(C#N)=C(N)O3)cc1 (centres unmarked) | 3.52
78 | COc1ccc(/C=N/NC(=O)CCNc2n[nH]c(=O)[nH]c2=O)c(OC)c1 | 17.6
79 | COc1ccc(OC)c2sc(NNC(=O)C3COc4ccccc4O3)nc12 (centres unmarked) | -7.04
80 | Cc1ccc(-c2csc(NC(=O)c3cccc([N+](=O)[O-])c3C(=O)O)n2)cc1 | -6.09
81 | COc1ccc2nc(NC(=O)CN(c3ccc(C)cc3)S(=O)(=O)c3c(C)nn(C)c3C)sc2c1 | -5.46
82 | O=C(CCNC(=O)c1ccccc1Cl)Nc1cccc(C(F)(F)F)c1 | 3.66
83 | C(=N\n1cnnc1)/c1cccnc1 | 3.86
84 | CCCNc1ncnc2nc[nH]c12 | -3.01
85 | CCOC(=O)C1CCCN(C(=O)c2ccc3c(=O)n(Cc4ccccc4OC)c(=S)[nH]c3c2)C1 (centres unmarked) | 15.4
86 | CCc1cccc(NC(=S)N2CCC(c3ccccc3)C2)c1 (centres unmarked) | 10.5
87 | CN(C)CCN(C(=O)/C=C/c1cccs1)c1nc2ccc(Br)cc2s1.Cl | 9.52
88 | Cc1onc(-c2ccccc2)c1C(=O)Nc1cccc(OC(C)C)c1 | -9.18
89 | COC(=O)C1=C(c2cc3ccccc3o2)C[C@@H]2CC[C@H]1N2C(=O)NCc1ccco1 | 12.4
